Results: PubChem BioAssay AID743279 (National Center for Advancing Translational Sciences (NCATS), 2014)
In all, about 360,000 compounds went through this assay and about 17,000 (4.7%) were called active. Inconclusive means that the source gave no clear call. Such entries were picked first, then a sample of the others. Cut-off read from the data, not from the text of the source: active = activity change below about -50%; inconclusive = mostly about -30% to -49%; inactive = weaker than that.
% is set by controls: 0 for no effect and ±100 for the full control effect.

Experiment: qHTS for Inhibitors of Inflammasome Signaling: IL-1-beta AlphaLISA Primary Screen
Conditions: THP-1 LPS/ATP IL-1B secretion, 16 h; at 57.5 µM, hits give low values
Description: Inflammasomes are a set of intracellular multi-protein complexes that enable autocatalytic activation of inflammatory caspases and drive the innate immune response to counter harmful agents. […] A qHTS assay, based on AlphaLISA technology, was developed to screen the Molecular Libraries Small Molecule Repository (MLSMR) to look for novel inflammasome inhibitors. The assay detects IL-1B using AlphaLISA anti-IL-1B acceptor and donor beads. A decreased emission signal, indicating reduced IL-1B secretion, is the desired outcome for this assay. NIH Chemical Genomics Center [NCGC] NIH Molecular Libraries Probe Centers Network [MLPCN] MLPCN Grant: MH095513 Assay Provider: Shyam Biswal Ph.D., Johns Hopkins University Immunity. 2012 Jul 27;37(1):85-95. PMID: 22819042 [2] Curr Pharm Des. 2012;18(16):2320-8. PMID: 22390695
Three microliters containing 3000 THP-1 cells were dispensed into the wells of solid, white, tissue culture treated Greiner 1,536-well plates. Library compounds and positive control, Glyburide, were pin-transferred (23 nL) by a Kalypsys pin-tool equipped with a 1,536-pin array, resulting in final compound concentration ranges of 2.5 nM to 57.5 uM. After 1 hr of cell culture incubation (37 °C, 5% CO2), 1 microL of 1 microg/mL lipopolysaccharide (250 ng/mL, final) and 5 mM ATP (1.25 mM, final) were added to stimulate the cells. After 16 hr of cell culture incubation with the compounds, 1.5 uL of anti-IL-1B acceptor beads (6 ug/mL, final) and biotinylated antibody (0.6 nM, final) were added to the plate, followed by a 1 hr incubation at ambient temperature. To detect the secreted IL-1B, 1.5 uL of AlphaLISA SA-Donor beads (24 ug/mL, final) were added, followed by 30 min of incubation in the dark at ambient temperature. The AlphaLISA signal was read by a PerkinElmer EnVision plate reader with an ultrasensitive luminescence detector and 1536 Plate HTS AlphaScreen aperture (excitation of 680nm and emission of 615nm).
With O=S(=O)(NCCN1CCOCC1)c1ccc(Cl)c(Cl)c1 the activity change was inactive: -7.26%.
With COc1ccc(S(=O)(=O)N(CC(=O)NCC2CCCO2)c2ccccc2)cc1OC (centres undefined) the activity change was inactive: 5.74%.
With Cc1ccc(NC(=O)N2CCCC2C(=O)NCCc2ccccc2)cc1 (centres undefined) the activity change was inactive: 27.9%.
With COc1ccc(C(=O)NCCNC(=O)c2ccc(OC)cc2)cc1 the activity change was inactive: 6.33%.
In the case of COc1ccccc1OCc1ccc(C(=O)N2N=C(C(F)F)CC2(O)C(F)F)o1 (centres undefined), the activity change is reported as inactive: -3.58%.
With COc1cc(F)ccc1-c1csc(C(C)(O)c2ccc(F)c(F)c2)n1 (centres undefined) the activity change was inactive: 16.9%.
For CS(=O)(=O)N(Cc1ccc(Cl)cc1)c1ccc(C(=O)Nc2cccnc2)cc1, the activity change was inactive: -0.49%.
For COc1ccc(NC(=O)CNCCC2=CCCCC2)cc1, the activity change was inconclusive: -36.8%.
With Cn1cnc2c(N/N=C/c3cccs3)ncnc21 the activity change was active: -91.1%.
In the case of Cn1c(SCC(=O)Nc2ccc3nc(SCC(=O)N4CCCC4)sc3c2)nnc1-c1ccccc1, the activity change is reported as inconclusive: -33.2%.
In the case of COc1cc(C2c3c(n[nH]c3C)C(=O)N2c2ccc(Br)cc2)ccc1O (centres undefined), the activity change is reported as inconclusive: -44.6%.
For O=c1oc2ccccc2n1Cc1cccc(C(F)(F)F)c1, the activity change was inactive: -5.05%.
In the case of C#CCNC(=O)C[C@@H]1C[C@@]2(C(=O)OCC)CCCC=C2N(CCCCCCCC)C1=O, the activity change is reported as inconclusive: -32.1%.
For Cc1cc(OCC(=O)Nc2ccccn2)c2c(C)cc(=O)oc2c1, the activity change was active: -54.4%.
For O=C1NC[C@@H](CCCCN2C[C@H](Cc3ccc(O)cc3)N(CCc3ccccc3)C(=O)C2=O)N(CCc2ccccc2)C1=O, the activity change was inactive: -26.6%.
In the case of C[C@@H]1CN([C@H](C)CO)C(=O)c2cc(C#C[C@@H](C)O)cnc2O[C@H]1CN(C)C(=O)c1ccc(F)cc1, the activity change is reported as inactive: 24.2%.
With Cc1ccc(C(=O)CNc2ccc(Cl)cc2)cc1 the activity change was inconclusive: -30.4%.
With Cc1ccc(S(=O)(=O)n2nc(-c3ccc(Cl)cc3)nc2NCc2ccco2)cc1 the activity change was inconclusive: -32.5%.
For O=C(NCCCN1CCOCC1)c1ccc2c(c1)N(Cc1cccc(F)c1)C(=O)c1ccccc1S2, the activity change was inconclusive: -47.5%.
For CN(C)C(CNC(=O)c1ccc(NC(=O)c2cccs2)cc1)c1ccccc1 (centres undefined), the activity change was inconclusive: -31.1%.
With CCCC(=O)OCCNc1cc(Sc2nc3ccccc3[nH]2)c2nonc2c1[N+](=O)[O-] the activity change was active: -104%.
In the case of FC(F)(F)c1ccc(-c2cccc3c2C2CC3CCN2Cc2ccc3c(c2)OCO3)cc1 (centres undefined), the activity change is reported as inactive: 8.46%.
In the case of CC1(C(=O)Nc2ccc3c(c2)OCCO3)CN(S(C)(=O)=O)CC(=O)N1CCc1c[nH]c2ccccc12 (centres undefined), the activity change is reported as inactive: -22.9%.
With COc1cc(C2c3c(-c4cc(C)cc(C)c4O)n[nH]c3C(=O)N2CCCO)cc(OC)c1OC (centres undefined) the activity change was inconclusive: -38.5%.
For O=C1CN(c2ccc(Br)cc2)C(=O)N1CC(=O)N1CCCc2ccccc21, the activity change was inconclusive: -43.7%.
With CCN(CC)CCN(C(=O)/C=C/c1cccs1)c1nc2ccc(OC)cc2s1 the activity change was inactive: 11.2%.
For Cc1ccccc1NC(=O)COC(=O)/C=C/c1cn(-c2ccccc2)nc1-c1cccnc1, the activity change was inactive: 10.3%.
For COC(=O)C1=CN(c2ccc(OC)cc2)C(N)=C(C#N)C1c1ccc(OC)cc1 (centres undefined), the activity change was inconclusive: -33.5%.
For O=C(COc1cccc(Cl)c1)Nc1cc(S(=O)(=O)N2CCOCC2)ccc1N1CCOCC1, the activity change was inconclusive: -34.5%.
With CC(C)(Cc1ccc(O)cc1)NC(=O)SCc1ccccc1 the activity change was inconclusive: -49%.
In the case of CCOC(=O)N1CCC(NC(=O)c2ccc3c(Cl)c4c(nc3c2)CCCC4)CC1, the activity change is reported as inconclusive: -42.2%.
In the case of CCC(=O)NC(c1ccc([N+](=O)[O-])cc1)c1c(O)ccc2ccccc12 (centres undefined), the activity change is reported as inconclusive: -46.1%.
In the case of Cc1cc(NC(=O)CSc2nnc(-c3ccoc3C)o2)no1, the activity change is reported as inactive: 17.9%.
With CC(C)CCN(C(=O)c1csnn1)C(C(=O)NC1CCCC1)c1ccc(F)cc1 (centres undefined) the activity change was active: -63.3%.
In the case of O=C(c1ccc(F)cc1)C1CCN(Cc2cn[nH]c2-c2ccc(F)cc2)CC1, the activity change is reported as inactive: -3.55%.
In the case of O=C(C(=Cc1ccccc1)c1ccccc1)c1ccccc1, the activity change is reported as inconclusive: -41.4%.
With Cc1ccc2[nH]c(=O)c(CN(Cc3ccco3)S(=O)(=O)c3c(C)ccc4nsnc34)cc2c1 the activity change was active: -58.3%.
With CCN(CC)S(=O)(=O)c1ccc(N2CCCC2)c(C(=O)OCC(=O)Nc2cc(C)on2)c1 the activity change was inconclusive: -34.3%.
In the case of COc1ccc(OC)c(NC(=O)Nc2cc(C(=O)O)ccc2C)c1, the activity change is reported as inactive: -6.85%.
For CCOC(=O)c1c(NC(=S)Nc2ccccc2)sc2c1CCCCC2, the activity change was inactive: 33.6%.
In the case of CC1=CC(C)(C)Nc2ccc(OC(=O)CN3C(=O)c4ccccc4C3=O)cc21, the activity change is reported as active: -99.9%.
For CSc1ccc(-c2nc(CN3CCCCC3c3cccnc3)c(C)o2)cc1 (centres undefined), the activity change was inconclusive: -47.4%.
In the case of O=C(Cn1cnc2c(nnn2Cc2ccc(F)cc2)c1=O)N1CCCc2ccccc21, the activity change is reported as inconclusive: -34.2%.
In the case of Cc1ccccc1CNC(=O)c1cc(COc2ccc(F)cc2F)on1, the activity change is reported as inconclusive: -30.8%.
In the case of COc1cccc(C(=O)Nc2ccc(C(=O)NCC3CCCO3)cc2)c1 (centres undefined), the activity change is reported as inactive: 17.6%.
In the case of Cc1ccc(C(=O)N/C(=C\c2ccc(C(C)C)cc2)C(=O)NCCCN2CCOCC2)cc1, the activity change is reported as inconclusive: -30.7%.
In the case of CC(C)Cc1ccc(C(C)C(N)=NCCc2ccccc2)cc1 (centres undefined), the activity change is reported as active: -91%.
For COc1ccc(/C=C2/SC(=S)N(Cc3ccccc3)C2=O)cc1O, the activity change was inconclusive: -38.8%.
In the case of COc1ccc(/C=N/NC(=O)c2ccc(COCC(F)(F)C(F)F)cc2)cc1, the activity change is reported as inactive: -11.8%.
For Cc1nc(COC(=O)c2ccc(CO)cc2)cs1, the activity change was inactive: -19.3%.
With Nc1ccccc1SC/C=C/CSc1ccccc1N the activity change was inconclusive: -44.6%.
For Cc1ccc(Nc2nnc(SCC(=O)Nc3cccc(S(=O)(=O)NC4=NCCCCC4)c3)s2)c(C)c1, the activity change was inconclusive: -33.3%.
In the case of CC(C)(C)c1ccc(C(=O)NCCn2c(N)c(C#N)c3nc4ccccc4nc32)cc1, the activity change is reported as inconclusive: -41.4%.
With COc1ccc(NC(=O)CSCC(=O)Nc2ccccc2N2CCCC2)cc1 the activity change was inactive: 5.89%.
